# Experimental data taken from PMC4336329 (PLoS ONE, 2015).
# About 2,200 (0.71%) of roughly 310,000 compounds showed an effect of 50% or more. The effect is printed as a negative number. Some of the results follow.
# Biological target: human ether-à-go-go-related gene (hERG) potassium channel (human, UniProt Q12809)
# Assay: primary screen, population patch clamp on CHO cells stably expressing hERG
# human ether-à-go-go-related gene (hERG) potassium channel, sequence (Q12809 whole entry, looked up): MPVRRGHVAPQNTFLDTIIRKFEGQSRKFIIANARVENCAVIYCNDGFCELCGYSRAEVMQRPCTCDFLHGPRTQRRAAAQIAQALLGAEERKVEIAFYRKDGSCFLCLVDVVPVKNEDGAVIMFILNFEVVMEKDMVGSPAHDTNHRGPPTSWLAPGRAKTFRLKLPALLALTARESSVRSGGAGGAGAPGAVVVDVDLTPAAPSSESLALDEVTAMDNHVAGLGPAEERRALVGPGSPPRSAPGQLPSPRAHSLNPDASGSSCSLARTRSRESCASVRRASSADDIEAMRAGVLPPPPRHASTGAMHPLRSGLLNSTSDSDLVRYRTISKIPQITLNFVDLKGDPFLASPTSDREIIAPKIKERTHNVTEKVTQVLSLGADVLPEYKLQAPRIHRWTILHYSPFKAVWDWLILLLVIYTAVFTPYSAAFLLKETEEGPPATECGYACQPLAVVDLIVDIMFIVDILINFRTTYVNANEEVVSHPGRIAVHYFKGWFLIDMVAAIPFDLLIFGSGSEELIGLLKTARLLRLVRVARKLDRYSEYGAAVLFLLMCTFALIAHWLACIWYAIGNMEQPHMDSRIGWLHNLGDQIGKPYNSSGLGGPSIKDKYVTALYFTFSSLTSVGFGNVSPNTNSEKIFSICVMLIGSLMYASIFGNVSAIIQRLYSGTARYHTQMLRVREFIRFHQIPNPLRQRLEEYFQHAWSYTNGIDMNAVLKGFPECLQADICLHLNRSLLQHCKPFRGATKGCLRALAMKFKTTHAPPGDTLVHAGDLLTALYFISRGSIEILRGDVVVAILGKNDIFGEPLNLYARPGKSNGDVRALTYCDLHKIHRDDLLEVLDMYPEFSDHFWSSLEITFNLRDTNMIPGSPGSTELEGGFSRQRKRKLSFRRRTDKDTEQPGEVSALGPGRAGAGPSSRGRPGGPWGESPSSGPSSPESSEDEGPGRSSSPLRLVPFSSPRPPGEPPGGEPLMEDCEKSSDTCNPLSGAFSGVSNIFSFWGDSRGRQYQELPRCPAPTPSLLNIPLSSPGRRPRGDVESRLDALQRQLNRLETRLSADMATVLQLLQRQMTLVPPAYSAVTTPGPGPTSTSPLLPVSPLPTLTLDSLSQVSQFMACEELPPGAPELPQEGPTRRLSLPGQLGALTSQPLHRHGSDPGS
row,Structure (SMILES),"hERG current change (%, negative = inhibition) at 1uM [%]"
1,O=C(Nc1ccccc1)c1snc2c(=O)[nH]cnc12,21.7
2,Cc1cccc(N2CCN(C(=O)CCN3C(=S)NC(C)(C)CC3C)CC2)c1C (stereo not shown),4.44
3,COC(=O)c1c(NC(=O)/C=C/C(=O)O)sc(C)c1-c1ccc(C(C)C)cc1,8.97
4,O=C(NC1CCCCCC1)C(Cc1ccccc1)n1cccc1 (stereo not shown),12.6
5,Cc1ccsc1/C=N/n1c(-c2ccccn2)n[nH]c1=S,8.13
6,CCc1ccc(-n2c(O)cnc2Nc2nc(C)cc(C)n2)cc1,5.91
7,C#Cc1ccc([C@@H]2C=C(C(=O)OCC=C)O[C@H](OCC)[C@H]2CCCO)cc1,10
8,COCCCNC(=O)COc1cc2c(c3oc(=O)c(C)c(C)c13)CCC(C)(C)O2,-3.73
9,Fc1ccc(OCc2nnc(SCCN3CCOCC3)o2)cc1,-1.43
10,O=C(N1CCN(c2ccc(F)cc2)CC1)C12CC3CC(CC(C3)C1)C2,14.1
11,C/C(=N\NC(=O)c1ccc(CSc2nncn2C)cc1)c1cccs1,10.1
12,O=C(NCc1cccc(Cl)c1)c1cc(COc2ccc3ncccc3c2)on1,12.8
13,Cc1c(C(=O)Nc2ccccn2)oc2ccccc12,8.21
14,CCc1ccc(Nc2nnc(SCc3cc(=O)n4ccsc4n3)s2)cc1,-5.58
15,O=C(CCl)Nc1ccccc1Sc1ccc(Cl)cc1,-0.584
16,O=C(C1CC1)N1CCc2[nH]c3ccccc3c2C1,6.65
17,Cc1ccc(C2CN=NC23CCc2ccccc2C3=O)cc1 (stereo not shown),-1.71
18,CCCCSc1cc(C)nc2ncnn12,-1.6
19,CC12CC3CC(C)(C1)CC(C(=O)NNC(=O)c1ccncc1)(C3)C2,-7.13
20,Cc1ccc(C(C(=O)NCC2CCCO2)N(C(=O)c2snc(C(N)=O)c2N)c2ccc(C)c(C)c2)o1 (stereo not shown),7.74
21,O=C(C1c2ccccc2C(=O)N2CCc3ccccc3C12)N1CCN(Cc2ccccc2)CC1 (stereo not shown),5.55
22,Cn1cnc2c(cnn2-c2ccccc2)c1=O,17.7

row,Structure (SMILES),"hERG current change (%, negative = inhibition) at 1uM [%]"
1,CC(=O)C1=C(O)CC(c2ccccc2)CC1=NCCc1c(C)[nH]c2ccccc12 (stereo not shown),0.452
2,COc1ccc(CNC(=O)c2ccc(-c3ccccc3)cc2)cc1OC,0.0568
3,CSc1ccc(CNC(=O)Cn2nc(C)c3c(C)n(-c4ccc(C)cc4)nc3c2=O)cc1,-13.1
4,CCCCNC(=O)C1CCN(c2nc(OC)nc(OC)n2)CC1,4
5,COc1ccc(C(=O)Nc2nnc(-c3cccs3)s2)cc1,18.6
6,C=C1/C(=C\C=C2/CCC[C@]3(C)[C@@H]([C@H](C)/C=C/[C@@H](O)C4CC4)CC[C@@H]23)C[C@@H](O)C[C@@H]1O,2.71
7,O=C(Nc1ccc(N2CCCC2)cc1)c1cc(Br)ccc1Cl,11.1
8,CCCCOCCCNS(=O)(=O)c1ccccc1,13.3
9,CCOC(=O)COc1ccc2c(c1)C(=O)CC(C)(C)O2,5.59
10,Cc1ccc(C(=O)NC2CCC(C)CC2)o1 (stereo not shown),5.81
11,COc1ccc(C(O)c2nccn2Cc2ccccc2)cc1OC (stereo not shown),-6.06
12,O=C(NCc1ccc2c(c1)OCO2)c1ccc2c(=O)n(C3CCCC3)c(=O)[nH]c2c1,14.6
13,Cc1ccc2nsnc2c1NC(=O)c1cccnc1Cl,15.1
14,CSc1ccc(C2C(C(=O)c3ccco3)=C(O)C(=O)N2c2nnc(SC)s2)cc1 (stereo not shown),14.7
15,COc1ccc(Br)c(C(=O)NCC2CCCCC2)c1,4.27
16,O=C1[C@H]2[C@@H](c3ccc(Cl)cc3)N3C(=O)N(c4cccc(Cl)c4)C(=O)[C@@]3(Cc3ccc(Cl)cc3)[C@H]2C(=O)N1C1CCCCC1,14.6
17,Cl.N[C@@H]1C[C@H]1c1ccccc1,7.89
18,Cc1cccc(NC(=O)CNC(=O)c2cccc(S(=O)(=O)NCc3cccs3)c2)c1C,4.01
19,COc1cc(C(=O)N(CCN(C)C)CC2CCCN(Cc3ccccc3F)C2)ccc1C (stereo not shown),4.35
20,CC1(CC(=O)N/N=C/c2ccc(OCc3ccc(Cl)cc3Cl)cc2)OCCCO1,11.2
21,CC(=O)Nc1ccc(C2=NN(C)C(=NCc3ccccc3)SC2)cc1,7.52
22,Cc1cc(C)c(NC(=S)N2CCC(N(C)CC3CCCO3)CC2)c(C)c1 (stereo not shown),4.7

row,Structure (SMILES),"hERG current change (%, negative = inhibition) at 1uM [%]"
1,CCC1CCCCN1CCCNC(=O)c1ccc2c(c1)c(C)c(C)n2CC (stereo not shown),1.67
2,Cc1n[nH]c(C)c1CNCc1c(C(=O)N2CCCCCCC2)nc2ccc(Cl)cn12,8.06
3,O=C(CSc1nnnn1-c1ccccc1)Nc1ncc2c(n1)CC(c1ccccc1)CC2=O (stereo not shown),10.4
4,CC[C@@]12C(=O)N(c3cccc(F)c3)C(=O)N1[C@H](c1cccc(C)c1)[C@@H]1C(=O)N(Cc3ccccc3)C(=O)[C@@H]12,11.6
5,COc1ccccc1CN(C)c1ccc(S(=O)(=O)N2CCN(C)CC2)cn1,6.05
6,O=C(C(Cc1ccccc1)NS(=O)(=O)c1ccc(F)cc1)N1CCC2(CC1)OCCO2 (stereo not shown),0.157
7,CC[C@H](C)[C@H](NC(N)=O)C(=O)Nc1ccccc1F,7.62
8,C#CCNc1nc(C(C)C)nc2c1nnn2Cc1ccccc1F,11.9
9,CC[C@H](C)[C@H](NC(=O)OCc1ccccc1)C(=O)OCC(=O)N(C)CC(=O)Nc1ccccc1Cl,0.675
10,NC(=O)COC(=O)c1ccccc1OCc1ccccc1,12.8
11,COc1ccccc1-c1nnc(SC(C)C(=O)O)n1-c1ccccc1 (stereo not shown),12.5
12,CCOc1ccccc1NC=C1C(=O)OC2(CCCCC2)OC1=O,14.4
13,Cc1ccc(NC(=O)c2ccco2)c(NC(=O)Cc2cccs2)c1,5.15
14,CC1=C(C)CC(C(=O)NCCCN2CCCC2=O)C(C(=O)O)C1 (stereo not shown),-0.886
15,O=C(COC(=O)c1ccccn1)Nc1c(Cl)cccc1Cl,5.86
16,Cc1cc(C)nc(SCc2ccc(C(=O)N/N=C/C3CCCCC3)cc2)n1,12.1
17,Cc1cc(/C=N/n2c(COc3ccccc3C)nc3ccccc3c2=O)c(O)c([N+](=O)[O-])c1,11.7
18,N/C(=N\OC(=O)CCCOc1ccccc1)c1cccc([N+](=O)[O-])c1,-0.923
19,CCO[C@@H]1c2c(ccc3ccc(=O)oc23)OC(C)(C)[C@H]1O,14.2
20,COc1cc(C)c(/C=C(\C#N)C(=O)Nc2ccc(C)cc2)cc1C(C)C,10.2
21,Cc1nc(NC(=O)CN2CCOCC2)sc1C(=O)N(C)C,10.2
22,Cc1nc(N2CCN(c3ccccn3)CC2)c2c(C)c(C(=O)Nc3ccc(F)cc3Cl)sc2n1,-1.8

row,Structure (SMILES),"hERG current change (%, negative = inhibition) at 1uM [%]"
1,Cc1ccc(C(C)n2cc(C(=O)NCCN3CCN(C)CC3)nn2)cc1 (stereo not shown),7.13
2,O=c1ccnc(Nc2ccc([N+](=O)[O-])cc2)[nH]1,19.8
3,CCOC(=O)c1sc2ccc(S(=O)(=O)N3CC(C)CC(C)C3)cc2c1N (stereo not shown),1.42
4,CN(C)c1ccc(NC(=O)CSc2nc(N)c(C(=O)Nc3ccc(N(C)C)cc3)s2)cc1,13.5
5,CCCCN(C)CCCNC(=O)c1cccc(N2CCCC2=O)c1,11.1
6,Fc1cccc(/C=N/Nc2ccc(Cl)nn2)c1,11.2
7,CN(CCOc1ccccc1)C(=O)c1cc(-c2ccco2)nc2ccccc12,-11.4
8,c1csc(C2=NNC(=NC3CCCCC3)SC2)c1,10.2
9,O=c1c2cc(Br)ccc2nc2n1CCCCC2,-3.14
10,CCOC(=O)CN1NC2(CCCCCC2)NC1=S,6.37
11,CCOC(=O)c1cc2c(N)c(C(=O)c3ccc(Br)cc3)sc2[nH]c1=O,-5.84
12,Cc1ccc(C)c(Cn2nnc3c(=O)[nH]c(C4CCN(C(=O)c5ccco5)CC4)nc32)c1,11.3
13,CCC(C(=O)NCc1ccc(F)cc1)N(Cc1ccco1)C(=O)c1snc(C(N)=O)c1N (stereo not shown),4.92
14,COc1ccc(C2N(c3cc(C)on3)C(=O)C3CCCN32)cc1 (stereo not shown),9.81
15,CN(C)CCN1C(=O)c2oc3ccc(F)cc3c(=O)c2C1c1ccncc1 (stereo not shown),8.84
16,COc1cccc(/C=N/NC(=O)CCc2ccccc2)c1,-2.97
17,O=C(CCC1CCCN(C(=O)c2ccsc2)C1)NCc1ccc(F)c(F)c1 (stereo not shown),7.35
18,CC(=O)c1cccc(NC(=O)CNC(=O)Cc2ccccc2)c1,25.4
19,COc1cc(C2CC(=O)c3c(ccc4ccccc34)N2)ccc1O (stereo not shown),12.2
20,COc1ccc2c(N)c(C(=O)NN)[nH]c2c1,12.1
21,CS/C(N)=N/N=C/c1ccc2c(c1)OCO2,13.3
22,CC1CN(c2nc3ccccn3c(=O)c2/C=C(\C#N)C(=O)N2CCOCC2)CC(C)O1 (stereo not shown),10.2
